# Source: PubChem BioAssay (NCATS)
# Where “and” joins values, the source holds several entries; their conditions need not be identical. Equal values may be shown once. This list was built around the results that the source calls inconclusive (neither active nor inactive); the mix of calls is not that of the screen. For some assays here: Potencies beside an inconclusive call are fits to weak or partial responses and may not hold up. Calls of active or inactive are those of the source. Unless noted, calls come from the whole dose curve; as a rule, active = well fitted curve in the direction sought with a large enough effect; inconclusive = small, poorly fitted or top-dose-only effect, or another doubt; inactive = no such curve, though single readings can be large; an effect the other way counts as inactive or inconclusive.
# Key:
# [1] = Primary qHTS for inhibitors of nuclear receptor binding SET domain protein 2 (NSD2) in an RCH-ACV wild type WT cells (2C) (AID 1645877); settings: activity change, negative = cell killing: at 44.9 µM (top of the series); note: nearly all actives have a fitted effect of over 70% in size; for activity change, negative = cell killing: % is set by controls: 0 for no effect and ±100 for the full control effect
# HEK293 = assay: Cytotoxic Profiling of Annotated Libraries Using Quantitative High-Throughput Screening (AID 1296008); settings: Five cell lines viability, CellTiter-Glo ATP luminescence, 48-72 h; max response: stronger effect = lower value; note: nearly all actives have a fitted effect of over 60% in size; for max response: % is set by controls: 0 for no effect and ±100 for the full control effect
# Procedure, shortened: (§1)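 Compounds were pin-transferred onto cells and incubated 48 or 72 hr at 37 degree Celsius, 95% humidity. CellTiter-Glo was added, plates sat 10 min at room temperature, then ATP-coupled luminescence was imaged as the viability read-out.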
# NIH3T3 = assay: as above; settings: Five cell lines viability, CellTiter-Glo ATP luminescence, 48-72 h; max response: stronger effect = lower value
# Procedure, shortened: as §1
# [2] = qHTS of pediatric cancer cell lines to identify multiple opportunities for drug repurposing: Primary screen for SK-N-MC cells (AID 1347093); settings: SK-N-MC viability, CellTiter-Glo luminescence, 48 h; activity change, negative = cytotoxic: at 46 µM (top of the series);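 for activity change, negative = cytotoxic: plate controls were DMSO neutral control for no effect and bortezomib for full effect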
# Procedure, shortened: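 Metabolically active cells were quantified by ATP-dependent luminescence (CellTiter-Glo, 15 min at room temperature) following 48 h treatment. Cells had been plated at 500-1,000 per well and settled for 5 h beforehand.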
# [3] = qHTS of pediatric cancer cell lines to identify multiple opportunities for drug repurposing: Primary screen for Saos-2 cells (AID 1347097); settings: Saos-2 viability, CellTiter-Glo ATP luminescence, 48 h; activity change, negative = cytotoxic: at 46 µM (top of the series); note: nearly all actives have a fitted effect of over 40% in size
# Procedure, shortened: (§2)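 CRCs from 8- or 11-point titrations (lowest final 0.59 nM NPC, 0.78 nM MIPE). Cell viability: CellTiter-Glo after 48 h incubation, 15 min room-temperature development, luminescence imaging.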
# [4] = qHTS of pediatric cancer cell lines to identify multiple opportunities for drug repurposing: Primary screen for BT-12 cells (AID 1347101); note: nearly all actives have a fitted effect of over 25% in size;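 for activity change, negative = cytotoxic: plate controls were DMSO for no effect and bortezomib positive control for full effect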
# Procedure, shortened: (§3)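 Cells (500-1,000/well) rested 5 h, then received compounds for 48 h; metabolically active cells were measured by CellTiter-Glo luminescence. Final concentrations spanned up to 46 µM (MIPE, 11-point) or 0.59 nM-46 µM (NPC, 8-point) in primary screens, 11-point in follow-ups.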
# [5] = qHTS of pediatric cancer cell lines to identify multiple opportunities for drug repurposing: Primary screen for OHS-50 cells (AID 1347103); note: nearly all actives have a fitted effect of over 40% in size
# Procedure, shortened: as §3
# [6] = Primary qHTS for small molecule stabilizers of the endoplasmic reticulum resident proteome: Secreted ER Calcium Modulated Protein (SERCaMP) assay (AID 1508630); settings: SH-SY5Y GLuc-SERCaMP (Gaussia luciferase released on ER calcium loss) secretion, thapsigargin, luminescence; activity change, negative = inhibition: at 38.4 µM (top of the series)
# Procedure, shortened: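 GLuc-SERCaMP-expressing SH-SY5Y cells, pretreated 16 h with compound, are challenged with thapsigargin to empty ER calcium stores; after 4 h, coelenterazine is added directly to the medium and luminescence is imaged.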
# [7] = Primary qHTS for inhibitors of nuclear receptor binding SET domain protein 2 (NSD2) in an isogenic RCH-ACV NSD2 p.E1099K mutant (9B) (AID 1645876); note: nearly all actives have a fitted effect of over 70% in size
# MKL-2 = assay: qHTS assay to identify novel small-molecules to repurpose for Merkel cell carcinoma treatment (AID 1296009); settings: MCC and control cell lines, CellTiter-Glo viability, 72 h; activity change, negative = cytotoxicity: at 46 µM (top of the series); note: nearly all actives have a fitted effect of over 60% in size
# Procedure, shortened: (§4)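 Cells exposed to NPC (8-point) and MIPE (11-point) compound dilutions for 72 hr at 37 degree celsius; viability read by CellTiter-Glo luminescence, normalized to no-cell and DMSO in-plate controls.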
# WaGa = assay: as above; settings: MCC and control cell lines, CellTiter-Glo viability, 72 h; series mostly up to 46 µM
# Procedure, shortened: as §4
# OV90 = assay: Primary qHTS to identify gynecologic anti-cancer compounds using libraries of approved drugs and bioactive compounds (AID 1345084); settings: Gynecologic cancer cell panel viability, ATPlite luminescence, 48 h; series mostly up to 57.5 µM; note: nearly all actives have a fitted effect of over 55% in size
# Procedure, shortened: (§5)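 Luminescence from the ATPlite ATP-monitoring reagent indicates viable cell number; lower signal means cytotoxicity. Cells received compound 16 h after seeding and were exposed for 48 h across five concentrations.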
# SKOV3 = assay: as above; settings: Gynecologic cancer cell panel viability, ATPlite luminescence, 48 h; series mostly up to 57.5 µM
# Procedure, shortened: as §5
# [8] = qHTS of pediatric cancer cell lines to identify multiple opportunities for drug repurposing: Primary screen for NB-EBc1 cells (AID 1347095);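 for activity change, negative = cytotoxic: plate controls were DMSO neutral control for no effect and bortezomib for full effect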
# Procedure, shortened: as §2
# [9] = qHTS of pediatric cancer cell lines to identify multiple opportunities for drug repurposing: Primary screen for SK-N-SH cells (AID 1347098); settings: SK-N-SH viability, CellTiter-Glo luminescence, 48 h; activity change, negative = cytotoxic: at 57 µM (top of the series); note: nearly all actives have a fitted effect of over 65% in size;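 for activity change, negative = cytotoxic: DMSO served as neutral control and bortezomib at 2.3 µM as positive control; % is set by controls: 0 for no effect and ±100 for the full control effect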
# Procedure, shortened: as §3
# [10] = A High-Content qHTS Against Drug Library for the Identification of Small Molecules that Inhibit DYT1 Early Onset Primary Dystonia-Associated Cell Pathology (AID 1645839; calls by dose curve)
# Procedure, shortened: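 Readout: %pathology, the punctate EGFP-TorsinA distribution from imaging, as the primary channel and cell count as the toxicity counterscreen. HEK293 Flp-In cells expressing delE TorsinA were induced with tetracycline and treated with compound for 48 h.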
# [11] = test system: Zika virus NS2B-NS3 protease (unlinked complex); assay: Primary screen GU Rhodamine qHTS for Zika virus inhibitors: Unlinked NS2B-NS3 protease assay (AID 1347159); note: nearly all actives have a fitted effect of over 60% in size
# Procedure, shortened: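 Noncovalent NS2B hydrophilic domain–NS3 protease domain complex (25 nM) preincubated 15 min at room temperature with compounds (up to 114 microM) in 10 mM Tris-HCl pH 8.0, 0.01% Tween 20; 1.5 microM Rhodamine110 substrate added, fluorescence change over 15 min fitted to Hill equation.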
# [12] = Drug repurposing screens with cells derived from glioblastoma tumor samples (AID 1345199); settings: GBM patient neurospheres viability, ATP luminescence, 48 h; Potency: tumour line A unless noted; activity, negative = cell killing: at 46 µM (top of the series), tumour line A unless noted; note: nearly all actives have a fitted effect of over 40% in size; for activity, negative = cell killing: % is set by controls: 0 for no effect and ±100 for the full control effect
# Procedure, shortened: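 Four patient lines of CD133+ GBM neurospheres were screened at several concentrations; hits were retested in those lines plus three slower-growing GBM lines, using 48-hour treatment and ATP-based viability.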
# [13] = P-glycoprotein substrates identified in KB-8-5-11 adenocarcinoma cell line, qHTS therapeutic library screen (AID 1346987); note: nearly all actives have a fitted effect of over 65% in size
# Procedure, shortened: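 KB-8-5-11: colchicine-selected sub-line of KB-3-1 over-expressing P-gp; assay medium lacked colchicine. 72 h drug exposure at 37 degree C, CellTiter-Glo.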
# Potency is the fitted concentration of half-maximal effect; tags give direction and shape of the fitted curve.
smiles,measurement,setting,value
CC1(C)CC2C(C1)C1(C)CCC13OC3(CO)C2O (configuration not stated),Potency,[1],inactive
same,outcome,HEK293,inactive
same,max response,NIH3T3,inactive: 5%
C=CCNc1nc(NCC=C)nc(N2CCN(C(c3ccc(F)cc3)c3ccc(F)cc3)CC2)n1,Potency,[2],"inconclusive: 33.5 µM [cytotoxic, single point]"
same,Potency,[3],"inconclusive: 33.5 µM [cytotoxic, single point]"
same,Potency,[4],"inconclusive: 3.89 µM [cytotoxic, partial curve]"
same,Potency,[5],"inconclusive: 38.9 µM [cytotoxic, single point]"
same,Potency,[6],"inconclusive: 6.31 µM [inhibitor, partial curve, poor fit]"
same,Potency,[7],"inconclusive: 9.44 µM [inhibitor, partial curve]"
same,Potency,[1],"inconclusive: 13.3 µM [inhibitor, partial curve]"
same,Potency,HEK293,active: 8.41 µM
same,Potency,MKL-2,"inconclusive: 4.22 µM [inhibitor, partial curve]"
same,Potency,WaGa,"inconclusive: 11.9 µM [inhibitor, partial curve]"
same,Potency,OV90,"inconclusive: 3.55 µM [cytotoxic, partial curve, poor fit]"
same,Potency,SKOV3,"inconclusive: 10 µM [cytotoxic, partial curve]"
CC1CCCCN1CCCOC(=O)c1ccc(OC2CCCCC2)cc1 (configuration not stated),Potency,[8],inactive
same,Potency,[9],"inconclusive: 38.6 µM [cytotoxic, single point]"
same,Potency,[4],"inconclusive: 21.9 µM [cytotoxic, single point]"
same,Potency,[10],"inconclusive: 35.5 µM [inhibitor, single point]"
same,Potency,[7],"inconclusive: 29.9 µM [inhibitor, single point]"
same,Potency,[1],"inconclusive: 29.9 µM [inhibitor, single point]"
same,Potency,HEK293,"inconclusive: 29.9 µM [inhibitor, single point]"
same,Potency,MKL-2,"inconclusive: 16.8 µM [inhibitor, single point]"
same,Potency,WaGa,"inconclusive: 18.8 µM [inhibitor, single point]"
same,Potency,SKOV3,"inconclusive: 0.708 µM [rising, partial curve, poor fit]"
CCCCCCCC/C=C\CCCCCCCC(=O)NCc1ccc(O)c(OC)c1,Potency,[8],"inconclusive: 0.75 µM [cytotoxic, full curve, poor fit]"
same,Potency,[3],"inconclusive: 29.9 µM [cytotoxic, single point]"
same,Potency,[4],"inconclusive: 13.8 µM [cytotoxic, partial curve]"
same,Potency,[6],"inconclusive: 35.5 µM [inhibitor, partial curve, poor fit] and inconclusive: 31.6 µM [inhibitor, single point]"
same,Potency,[10],"inconclusive: 7.94 µM [inhibitor, partial curve, poor fit]"
same,Potency,HEK293,"inconclusive: 23.7 µM [inhibitor, single point]"
same,Potency,MKL-2,"inconclusive: 26.6 µM [inhibitor, partial curve, poor fit]"
same,Potency,WaGa,"inconclusive: 21.1 µM [inhibitor, single point]"
CC(=O)NC(Cc1ccccc1)C(=O)O (configuration not stated),Potency,[3],"inconclusive: 37.6 µM [cytotoxic, partial curve, poor fit]"
same,Potency,[9],inactive
same,Potency,[4],inactive
same,Potency,[11],"inconclusive: 70.8 µM [inhibitor, partial curve, poor fit]"
same,Potency,[1],"inconclusive: 33.5 µM [inhibitor, single point] and inactive"
same,max response,HEK293,inactive: 1.21% and inactive: -5.41%
same,Potency,[12],inactive
COC(=O)[C@@H](N)Cc1ccc(O)c(O)c1,"activity change, negative = cytotoxic",[2],inconclusive: -41.4% [cytotoxic]
same,Potency,[6],"inconclusive: 35.5 µM [inhibitor, partial curve, poor fit] and inconclusive: 10 µM [inhibitor, partial curve, poor fit]"
same,Potency,[7],"inconclusive: 26.6 µM [inhibitor, single point]"
same,Potency,[1],"inconclusive: 23.7 µM [inhibitor, single point]"
same,max response,HEK293,inactive: -4.7%
same,Potency,MKL-2,"inconclusive: 26.6 µM [inhibitor, single point]"
same,Potency,WaGa,"inconclusive: 11.9 µM [inhibitor, partial curve]"
same,Potency,SKOV3,inactive
O=C(O)c1cn(C2CC2)c2cc(Cl)c(F)cc2c1=O,Potency,[7],inactive
same,max response,HEK293,inactive: -5.06%
Cc1ccc(O)c([C@H](CCN(C(C)C)C(C)C)c2ccccc2)c1,Potency,[13],"inconclusive: 29.1 µM [inhibitor, single point]"
same,Potency,[2],"inconclusive: 21.1 µM [cytotoxic, partial curve, poor fit]"
same,Potency,[8],"inconclusive: 5.31 µM [cytotoxic, partial curve, poor fit]"
same,Potency,[9],"inconclusive: 6.12 µM [cytotoxic, partial curve]"
same,Potency,[5],"inconclusive: 8.71 µM [cytotoxic, partial curve]"
same,Potency,[6],"inconclusive: 28.2 µM [inhibitor, single point]"
same,Potency,[10],"inconclusive: 11.2 µM [inhibitor, partial curve, poor fit]"
same,Potency,[1],"inconclusive: 23.7 µM [inhibitor, single point]"
same,Potency,HEK293,"inconclusive: 21.1 µM [inhibitor, single point]"
same,Potency,WaGa,"inconclusive: 23.7 µM [inhibitor, partial curve]"
same,Potency,OV90,"inconclusive: 12.6 µM [cytotoxic, partial curve, poor fit]"
same,Potency,[12],active: 3.98 µM
